{
  "source": "the supplement of paper PMC3334620",
  "note": "In all, about 33,000 sequences were measured (“E-score (-0.5 to 0.5)”: median about -0.012, highest 2% from about 0.29 on). This is one part of the list.",
  "data": [
    {"biological_target": "T1, Ybr033w (UniProt P38073)", "T1 sequence": "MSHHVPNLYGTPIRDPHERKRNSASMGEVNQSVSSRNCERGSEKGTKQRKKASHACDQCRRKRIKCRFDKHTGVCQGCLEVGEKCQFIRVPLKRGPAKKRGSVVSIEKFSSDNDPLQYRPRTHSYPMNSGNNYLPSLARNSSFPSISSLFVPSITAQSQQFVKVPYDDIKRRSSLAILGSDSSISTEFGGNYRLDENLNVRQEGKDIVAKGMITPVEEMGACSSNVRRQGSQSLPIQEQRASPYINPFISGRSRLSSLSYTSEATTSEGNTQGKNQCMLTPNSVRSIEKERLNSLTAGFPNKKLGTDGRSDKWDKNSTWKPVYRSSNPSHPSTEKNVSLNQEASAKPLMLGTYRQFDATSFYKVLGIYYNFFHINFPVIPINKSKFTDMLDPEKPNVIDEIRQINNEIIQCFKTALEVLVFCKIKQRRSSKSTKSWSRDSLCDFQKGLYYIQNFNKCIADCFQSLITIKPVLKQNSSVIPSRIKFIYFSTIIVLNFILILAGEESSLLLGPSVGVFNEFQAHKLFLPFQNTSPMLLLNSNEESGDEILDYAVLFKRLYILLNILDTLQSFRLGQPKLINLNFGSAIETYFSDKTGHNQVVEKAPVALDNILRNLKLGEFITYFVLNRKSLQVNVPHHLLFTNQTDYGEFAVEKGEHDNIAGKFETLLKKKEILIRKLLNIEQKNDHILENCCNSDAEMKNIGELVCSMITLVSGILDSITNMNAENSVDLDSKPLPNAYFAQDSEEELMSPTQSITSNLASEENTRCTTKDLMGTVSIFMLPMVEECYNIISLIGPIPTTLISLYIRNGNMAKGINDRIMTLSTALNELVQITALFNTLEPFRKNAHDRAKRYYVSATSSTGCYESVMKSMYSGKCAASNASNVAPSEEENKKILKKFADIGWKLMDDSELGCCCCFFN", "assay": "PBM E-score (8-mer binding enrichment) (E-score (-0.5 to 0.5)); higher = stronger / more preferred TF binding; most listed sequences are background and not binding sites", "conditions": "protein concentration: 200 nM; construct: GST-full length", "procedure,_shortened": "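Universal all-10-mer Agilent arrays, fresh or stripped once, were converted to double-stranded form by primer extension. GST-tagged yeast transcription factors from PURExpress in vitro transcription/translation, full-length or DNA-binding domain only, were applied at about 100-200 nM and detected with fluorescent anti-GST. After masliner normalisation, the Universal PBM Analysis Suite scored each ungapped eight-base word together with its reverse complement by E-score.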", "values": [
      {"sequence": "AAAGATCA", "PBM E-score": 0.173},
      {"sequence": "CCTTTCCC", "PBM E-score": -0.0266},
      {"sequence": "ATGTAAAA", "PBM E-score": 0.281},
      {"sequence": "AGGGCAAG", "PBM E-score": 0.0869},
      {"sequence": "ATACGATG", "PBM E-score": 0.153},
      {"sequence": "AACAGGGG", "PBM E-score": -0.127},
      {"sequence": "GCTTCGCA", "PBM E-score": -0.207},
      {"sequence": "GAGCGAGC", "PBM E-score": 0.0539},
      {"sequence": "ACGTATGG", "PBM E-score": 0.115},
      {"sequence": "ACTGTCTA", "PBM E-score": -0.0253},
      {"sequence": "ACTTCAAG", "PBM E-score": 0.0875},
      {"sequence": "CACAGCCC", "PBM E-score": -0.319},
      {"sequence": "GTGAAGGA", "PBM E-score": 0.0608},
      {"sequence": "CAAACCGA", "PBM E-score": -0.144},
      {"sequence": "ATGAACAC", "PBM E-score": 0.0659},
      {"sequence": "ACGAAAAT", "PBM E-score": 0.259},
      {"sequence": "GCAAAGAA", "PBM E-score": 0.141},
      {"sequence": "AAAAATTT", "PBM E-score": 0.283},
      {"sequence": "AGCGGTAA", "PBM E-score": 0.0553},
      {"sequence": "ACTATACG", "PBM E-score": -0.0114},
      {"sequence": "AGTTAGCA", "PBM E-score": 0.148},
      {"sequence": "ATAGGCAC", "PBM E-score": -0.0539},
      {"sequence": "ACAATAGG", "PBM E-score": 0.185},
      {"sequence": "ACCAGAGG", "PBM E-score": 0.0474},
      {"sequence": "AATGCATA", "PBM E-score": 0.126},
      {"sequence": "AATAAAGA", "PBM E-score": 0.267},
      {"sequence": "AGTGCGAG", "PBM E-score": -0.0629},
      {"sequence": "AGAGGCCA", "PBM E-score": -0.233},
      {"sequence": "GACTCCTC", "PBM E-score": 0.00762},
      {"sequence": "CCGGGATC", "PBM E-score": 0.0254},
      {"sequence": "TCGTCTAA", "PBM E-score": -0.165},
      {"sequence": "ATCGTGGG", "PBM E-score": -0.0289},
      {"sequence": "AGCCCGAT", "PBM E-score": 0.0653},
      {"sequence": "TGTCCCAA", "PBM E-score": -0.0715},
      {"sequence": "CGTATCTC", "PBM E-score": -0.0891},
      {"sequence": "ATAGTCTG", "PBM E-score": 0.047},
      {"sequence": "GACAGGGC", "PBM E-score": -0.285},
      {"sequence": "ATAGCGAG", "PBM E-score": 0.0301},
      {"sequence": "GACTGGGA", "PBM E-score": -0.159},
      {"sequence": "AGGTCAAA", "PBM E-score": -0.0711},
      {"sequence": "CTCGTCGC", "PBM E-score": -0.172},
      {"sequence": "ACTCAGCA", "PBM E-score": 0.0235},
      {"sequence": "CTCCCAAC", "PBM E-score": -0.248},
      {"sequence": "GGTTGCTA", "PBM E-score": -0.175},
      {"sequence": "ACCTGTGC", "PBM E-score": -0.0835},
      {"sequence": "GTCTTCGA", "PBM E-score": -0.158},
      {"sequence": "CGAGTGAG", "PBM E-score": -0.0821},
      {"sequence": "AAGAGTGA", "PBM E-score": 0.0594},
      {"sequence": "TCTCCAGA", "PBM E-score": -0.189},
      {"sequence": "CTACCAAA", "PBM E-score": 0.0674},
      {"sequence": "AGAACACT", "PBM E-score": 0.0257},
      {"sequence": "GCGTCATA", "PBM E-score": 0.103},
      {"sequence": "AACCCGCA", "PBM E-score": -0.00368},
      {"sequence": "AGGCTTGG", "PBM E-score": -0.115},
      {"sequence": "AGAAAGTC", "PBM E-score": 0.173},
      {"sequence": "ATAAATCG", "PBM E-score": 0.218},
      {"sequence": "GAGTCGAC", "PBM E-score": -0.0211},
      {"sequence": "ACATAGTC", "PBM E-score": 0.0687},
      {"sequence": "ACTCTCAG", "PBM E-score": 0.0115},
      {"sequence": "GACAAGCC", "PBM E-score": -0.0662},
      {"sequence": "CGTCGACA", "PBM E-score": -0.0473},
      {"sequence": "ACCCTGCT", "PBM E-score": -0.345},
      {"sequence": "CATACAAG", "PBM E-score": -0.0705},
      {"sequence": "CCGGAAAC", "PBM E-score": 0.14},
      {"sequence": "GGTCAGAA", "PBM E-score": 0.00198},
      {"sequence": "GGAATTAA", "PBM E-score": 0.349},
      {"sequence": "ATGTGTTG", "PBM E-score": 0.122},
      {"sequence": "CTCCGAAC", "PBM E-score": -0.172},
      {"sequence": "CCATGAGC", "PBM E-score": -0.151},
      {"sequence": "ACCTCTCT", "PBM E-score": -0.126},
      {"sequence": "ATCAGGCA", "PBM E-score": 0.0225},
      {"sequence": "GCATGTAA", "PBM E-score": 0.0977},
      {"sequence": "AGCCTGAC", "PBM E-score": -0.25},
      {"sequence": "AAAGTGAT", "PBM E-score": 0.204},
      {"sequence": "TAGATCAA", "PBM E-score": 0.161},
      {"sequence": "CACATTAA", "PBM E-score": 0.156},
      {"sequence": "CAATCTGG", "PBM E-score": -0.0491},
      {"sequence": "GATACCCA", "PBM E-score": 0.0285},
      {"sequence": "AACGCTCC", "PBM E-score": -0.0124},
      {"sequence": "GACCCACC", "PBM E-score": -0.317},
      {"sequence": "ACTAAAGC", "PBM E-score": 0.0861},
      {"sequence": "GCACGATA", "PBM E-score": 0.0979},
      {"sequence": "AAAGCGTA", "PBM E-score": 0.0704},
      {"sequence": "ACTCATCC", "PBM E-score": 0.114},
      {"sequence": "AAACAGCC", "PBM E-score": -0.0998},
      {"sequence": "ATGATTGG", "PBM E-score": 0.118},
      {"sequence": "GCTACGAA", "PBM E-score": -0.0523},
      {"sequence": "CACGTATA", "PBM E-score": 0.0912},
      {"sequence": "CGTCCGGA", "PBM E-score": -0.114},
      {"sequence": "ACGTCTAT", "PBM E-score": -0.104},
      {"sequence": "CCTGGGCA", "PBM E-score": -0.239},
      {"sequence": "ATTAAGCG", "PBM E-score": 0.0998},
      {"sequence": "CATCGGAC", "PBM E-score": -0.235},
      {"sequence": "AGCTATGA", "PBM E-score": 0.0695},
      {"sequence": "AAATCTGA", "PBM E-score": 0.221},
      {"sequence": "GCGGTGAA", "PBM E-score": -0.0498},
      {"sequence": "TAACCTCA", "PBM E-score": 0.0768},
      {"sequence": "AGCGTTCA", "PBM E-score": -0.158},
      {"sequence": "GGCAAACC", "PBM E-score": -0.232},
      {"sequence": "CATACCTC", "PBM E-score": 0.0715},
      {"sequence": "AGAAAACG", "PBM E-score": 0.149},
      {"sequence": "GGACTCCA", "PBM E-score": -0.0628},
      {"sequence": "CCCCATGA", "PBM E-score": -0.148},
      {"sequence": "CCATCAAG", "PBM E-score": 0.0693},
      {"sequence": "ACCATCCA", "PBM E-score": -0.093},
      {"sequence": "CGATATCA", "PBM E-score": 0.152},
      {"sequence": "GCCGGTGA", "PBM E-score": -0.228},
      {"sequence": "AATCGCCG", "PBM E-score": -0.173},
      {"sequence": "CACCGTCC", "PBM E-score": -0.0719}
    ]}
  ]
}
